Assay results reported in paper PMC6919601, “Identification of Plasmodium dipeptidyl aminopeptidase allosteric inhibitors by high throughput screening” (PLoS ONE, 2019).
Screen size: about 110,000 compounds; about 230 (0.21%) showed an effect of 50% or more. The list shows a part of the results.

These molecules were tested against DPAP1 (Plasmodium falciparum, UniProt Q8IIJ9) (assay: primary screen, percent inhibition; read by cleavage of a fluorogenic dipeptide substrate; higher = more effect of the substance).
Design: species or system P. falciparum D10 trophozoite lysates; single well
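Note: 30 min substrate incubation versus DMSO and 10 µM JCP410 controls.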

DPAP1, sequence (Q8IIJ9 whole entry, looked up): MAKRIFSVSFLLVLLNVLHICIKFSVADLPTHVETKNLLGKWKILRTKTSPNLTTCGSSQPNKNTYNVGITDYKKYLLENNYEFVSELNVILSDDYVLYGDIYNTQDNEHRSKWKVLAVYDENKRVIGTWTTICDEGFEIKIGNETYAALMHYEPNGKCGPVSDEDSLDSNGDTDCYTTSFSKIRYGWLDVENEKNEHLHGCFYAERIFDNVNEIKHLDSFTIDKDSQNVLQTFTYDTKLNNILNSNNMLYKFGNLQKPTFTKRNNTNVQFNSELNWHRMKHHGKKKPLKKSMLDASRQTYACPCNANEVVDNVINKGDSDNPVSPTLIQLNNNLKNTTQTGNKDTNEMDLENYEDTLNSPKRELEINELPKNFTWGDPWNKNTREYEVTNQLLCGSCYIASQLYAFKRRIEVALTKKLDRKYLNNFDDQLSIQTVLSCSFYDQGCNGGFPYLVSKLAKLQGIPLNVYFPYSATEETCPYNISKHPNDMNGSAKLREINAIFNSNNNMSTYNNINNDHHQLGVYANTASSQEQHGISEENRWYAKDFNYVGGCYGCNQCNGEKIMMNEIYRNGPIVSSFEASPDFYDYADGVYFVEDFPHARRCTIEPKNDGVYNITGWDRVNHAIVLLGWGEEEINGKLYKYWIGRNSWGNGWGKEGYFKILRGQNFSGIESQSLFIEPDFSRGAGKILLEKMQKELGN

Structure (SMILES) | % Inhibition @ 10 uM [%]
CC(C)C[C@H](NC(=O)c1ccc(-c2csc(NC3CCN(C(=O)OC(C)(C)C)CC3)n2)cc1)C(=O)NCC#N | -4.72
Cc1cc(=O)n2cccc(O)c2n1 | -5.5
CC(C)(C)n1cnc2cc(NC(=O)c3cccs3)ccc21 | -3.24
COC(=O)c1ccc2oc(=O)c(-c3nc4cc(C(=O)O)ccc4[nH]3)cc2c1 | 4.77
Cc1[nH]cnc1CN1CCC(Cc2ccccc2)CC1 | 0.217
CC1CCCC(C)N1CCNC(=O)C1C2C=CC3(CN(Cc4ccccc4Cl)C(=O)C13)O2 (stereo not shown) | -5.43
COc1ccc(C2(CNCC3(O)CCC4C5CCC6C7OCCOC7C(C)CC6(C)C5CCC43C)CCCC2)cc1OC (stereo not shown) | 1.54
CO/C=C(\Oc1ccccc1C)C(=O)Nc1cccc(C)c1 | -2.99
Clc1ccc(Oc2nc(N3CCOCC3)nc(N3CCOCC3)n2)c(C2CCCCC2)c1 | 4.19
CC(NC(=O)CN(C)S(=O)(=O)c1c[nH]cn1)c1ccccc1 (stereo not shown) | -0.0309
COc1cccc(CCNCc2c(F)cccc2F)c1 | 25.4
Oc1cc(N2CCOCC2)c2ccccc2c1Cl | -1.17
O=C(CSc1nc2ccccc2o1)Nc1ccccc1C(F)(F)F | 1.84
COc1ccc(-c2nn(C)c(=O)c3ccccc23)cc1CNC(=O)c1ccccc1OC | 3.72
ClC(Cl)=CC1CC(c2ccccc2)=NN1c1ccccc1 (stereo not shown) | -1.76
C=CCOc1cccc(C(Nc2cc(C)ccn2)c2ccc3cccnc3c2O)c1 (stereo not shown) | -1.33
OCC1CCCN(Cc2cccs2)C1 (stereo not shown) | -6.12
COc1ccc(NC(=O)c2nn3c(c2Cl)NC(c2cccs2)CC3C(F)(F)F)c(OC)c1 (stereo not shown) | -2.87
CC(C)CCNCc1c(C(=O)O)n(Cc2ccccc2Cl)c2ccccc12 | -5.05
CCOc1cc2c(cc1/C=C1\SC(=O)NC1=O)OCO2 | 7.87
CCc1ccccc1NS(=O)(=O)c1c(C)cc(C)cc1C | -1.62
CC(CCc1ccccc1)N1CCN(C)CC1 (stereo not shown) | 3.05
O=[N+]([O-])c1ccc(-c2[nH]c(-c3ccc(Br)cc3)nc2-c2ccccc2)cc1 | 7.47
Cc1cc(OCC(=O)N(Cc2ccccc2F)C2CCS(=O)(=O)C2)cc(C)c1Cl (stereo not shown) | 3.62
Cc1cc(Sc2nnnn2-c2ccccc2)nc2ccccc12 | -0.424

Structure (SMILES) | % Inhibition @ 10 uM [%]
Cc1nc2nc(NCc3cccs3)nn2c(O)c1C | -0.671
COc1ccc(C(=O)NC2(C(F)(F)F)C(=O)Nc3c2c(=O)[nH]c(=O)n3-c2ccc(F)cc2)cc1 (stereo not shown) | 0.231
O=C(NCCO)/C(=C/c1ccc(Br)cc1)NC(=O)c1cccs1 | 2.69
COc1cccc(N(CC(=O)Nc2ccccc2C)S(=O)(=O)c2ccccc2)c1 | 2.02
COc1cccc(/C=C2\SC(Nc3cccc(Cl)c3C)=NC2=O)c1OCC(=O)O | 7
Cc1nc2cc(-c3ccccc3)nn2c(C)c1CC(=O)NCCCOC(C)C | 0.953
O=c1oc2cc(O)ccc2cc1-c1nc(-c2ccc3ccccc3c2)cs1 | 0.23
CC(Oc1ccc(F)cc1)C(=O)Nc1sc2c(c1C(=O)NCc1cccnc1)CCCC2 (stereo not shown) | 0.661
CSc1nc(C)cc(Oc2ccc(OCC(N)=O)nn2)n1 | -6.71
Cc1cc(C)c(C(N)=O)c(Nc2ccc(Cl)cc2)n1 | -10.8
c1ccc(N2CCN(C3C4CC5CC(C4)CC3C5)CC2)cc1 (stereo not shown) | 1.29
CCCCOc1ccc(C(=O)Cc2ccccc2)cc1 | -3.74
Cc1ccc(C(=O)C2=C(O)C(=O)N(c3nccs3)C2c2cccc(OCc3ccccc3)c2)o1 (stereo not shown) | -3.65
COc1cccc(CNc2nc3c(S(=O)(=O)c4ccc(C(C)C)cc4)nnn3c3ccsc23)c1 | 5.09
Cc1cccc(C)c1NC(=O)C1(N(C)C(=O)CN2C(=O)c3ccccc3C2=O)CCCCC1 | -3.98
Cc1ccc(S(=O)(=O)Cc2ccc(C(=O)N3CCCCCC3)o2)cc1 | -1.28
COc1ccc(OC)c(NC(=O)CN(c2cccc3ccccc23)S(C)(=O)=O)c1 | -9.56
COc1ccc(CN2CCN(Cc3cccc(Br)c3)CC2)cc1OC | -3.12
O=C(NCc1ccco1)c1ccc2c(c1)OCO2 | -3.47
COc1ccc(C(=O)N2CCN(c3cc(Cl)ccc3C)CC2)cc1 | -4.71
Cc1ccc(Nc2nc(N)nc(Cl)n2)cc1 | 0.00178
CCCCc1ccc(-n2c(C)cc(/C=C3\NC(=O)NC3=O)c2C)cc1 | -4.48
O=C(/C=C/c1ccco1)Nc1nc(-c2ccc(Br)cc2)cs1 | 1.13
COc1ccc(N2C(=O)NC(=O)C(Cc3ccc(O)c(OC)c3)C2=O)cc1 (stereo not shown) | 6.69
